Hit rate of the full screen: of about 44,000 compounds, about 340 (0.77%) were called active. Not shown: some 5% with an inconclusive outcome. Calls follow the shape of the dose curve; as a rule, active = well fitted inhibition curve with a large enough effect; inconclusive = small, poorly fitted or top-dose-only effect; inactive = flat fitted curve, though single readings scatter. The list shows a part of the results.
Test: Acumen qHTS Assay for Inhibitors of the mTORC1 Signaling Pathway in MEF (Tsc2-/-, p53-/-) Cells: Sytravon; also: nearly all actives have a fitted effect of over 50% in size
Details: phospho-rpS6 immunofluorescence/PI, 24 h; series mostly up to 38.3 µM; activity change, negative = inhibition: at the top concentration
Outline: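 Readout is phospho-S6 Alexa 488 signal normalized to PI per well, reported as % active cells with thresholds set from rapamycin (7.5 nM) and DMSO controls. Cells: Tsc2-/-, p53-/- MEFs, 24 hrs compound at 37 C; PI cell number serves as viability.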

Activity change, negative = inhibition, inactive:
COc1ccc(NC(=O)c2oc3ccccc3c2NC(=O)c2cc3ccccc3o2)cc1 5.74%
CCOc1ccc(NS(=O)(=O)c2ccc3[nH]cc(C(=O)N(C)Cc4ccccc4)c(=O)c3c2)cc1 -2.21%
Cc1ccc(OC(=O)c2cc(-c3ccc4c(c3)OCCO4)on2)cc1C -0.558%
COc1ccc2c(c1)CC(NC(=O)Nc1c(C)cc(C)cc1C)CO2 (configuration not stated) 9.74%
CCOc1ccc(NC(=O)CSc2nnc3scc(-c4ccc(Cl)cc4)n23)cc1 -10.9%
CCOc1cccc2cc(-c3nc4ccc(C(=O)O)cc4[nH]3)c(=O)oc12 0.502%
COc1cc2oc(=O)c(CC(=O)N3CCCCC3)c(C)c2cc1Cl 4.06%
COc1ccc(C)cc1S(=O)(=O)N1CCN(c2cccc(Cl)c2)CC1 7.12%
Cc1cccc(-n2c3nc(=O)[nH]c(=O)c-3cc3c(Cl)cccc32)c1C -18%
O=C(NCC(c1ccco1)S(=O)(=O)c1cccs1)c1ccc(F)cc1 (configuration not stated) -5.92%
Cc1ccc(C)c(CN2C(=O)c3ccccc3S(=O)(=O)c3ccc(C(=O)N4CCCCCC4)cc32)c1 -5.09%
CCOC(=O)c1ccc2oc(=O)n(Cc3ccccc3)c2c1 0%
CC(=O)Nc1ccc(C2Sc3ccccc3NC3=C2C(=O)c2ccccc23)cc1 (configuration not stated) 3.17%
Cc1oc2ncn(CC(C)C)c(=O)c2c1C(=O)NCCCN1CCCCC1 1.03%
O=C(COc1ccc(F)cc1)Nc1ccc2nc(SCC(=O)N3CCc4ccccc43)sc2c1 -0.58%
COc1ccccc1CNC(=O)c1ccc(N2CCCC2)c(NC(=O)NCCC(C)C)c1 6.68%
Cc1cc(C)c(NC(=O)c2cc3sc(Cl)cc3n2C)c(C)c1 -1.51%
COc1cccc(NC(=O)CSc2ncc(S(=O)(=O)c3ccc(C)c(C)c3)c(=O)[nH]2)c1 0.795%
Cc1ccccc1OCC(=O)OCc1cc(=O)n2nc(C3CCCCC3)sc2n1 0%
CC(=O)c1ccc(N2CCN(S(=O)(=O)c3ccc(-c4cc(C(F)(F)F)on4)s3)CC2)cc1 2.78%
CCc1c(-c2ccccc2)nc2ccccc2c1C(=O)NCCc1ccccc1 1.02%
CSc1cccc(NC(=O)Cn2c3ncccc3c(=O)n2-c2ccc(C)cc2)c1 -8.89%
Cc1csc2nc(COc3ccccc3NC(=O)c3ccco3)cc(=O)n12 -21.6%
COc1cc(NC(=O)CCc2nc(-c3cccs3)no2)cc(OC)c1OC -4.54%
Cc1ccc2c(=O)cc(C(=O)Nc3cccc(Cl)c3C)oc2c1C -16.2%
COc1ccc(OCCCCn2c(-c3ccc(Cl)cc3)nc3ccccc3c2=O)cc1 -0.143%
CCCCCOC(=O)CSc1ncnc2c1sc1nc(N3CCOCC3)c3c(c12)CCCC3 -0.863%
Cc1cc(Nc2cccc(C)c2C)n2cnnc2n1 -7.53%
Cn1c(=O)c2c(-c3ccccc3Cl)n(-c3cc(Cl)ccc3O)cc2n(C)c1=O 0%
COc1ccc(Nc2ncc(C(=O)N3CCN(c4cccc(Cl)c4)CC3)c3ccccc23)cc1 -17.5%
Cc1ccc(C)c(-n2c(CCC(=O)O)ccc2-c2ccc(Cl)cc2)c1 0.677%
Cc1cccc(NC(=O)CSc2nc(-c3ccccc3)cn2-c2ccccc2)c1C -17.1%
COCCn1ccc2c(OCC(=O)Nc3cccc(OC)c3)cccc2c1=O -10.5%
CCc1ccc2ncc3c(-c4ccc(F)cc4)nn(CC(=O)NCc4ccccc4)c3c2c1 -11.9%
Cc1nc(C)c(-c2ccc(SCC(=O)Nc3ccc(C)c(F)c3)nn2)s1 -9.4%
COc1ccc(CNC(=O)c2c(O)nc3cc(C)ccn3c2=O)cc1 0.0251%
CC(C)CC(C(=O)NCc1ccc(F)cc1)N1Cc2ccccc2C1=O (configuration not stated) -5.75%
CCOc1ccc(-c2nc(SCC(=O)Nc3ccc(C)c(C)c3)n3[nH]c(=O)cc3n2)cc1 -0.79%
Cc1ccc(C(C)C)c(OCC(=O)Nc2ccc(C(=O)OC3CCCCC3)cc2)c1 -8.24%
CCc1nnc(SCc2nc(-c3ccc(OC)c(OC)c3)oc2C)c2cc3sc(C)cc3n12 1.95%
Cc1ccc(/C=C/c2onc(C)c2S(=O)(=O)N2CCC(C(=O)NCc3ccc(C)o3)CC2)cc1 -4.72%
COc1cccc(CNC(=O)Cc2ccc(NC(=O)N3CCCCc4ccccc43)cc2)c1OC -1.21%
Cc1ccc(CSCc2ccc(C(=O)NCCc3ccc(Cl)cc3)o2)cc1 7.61%
Cc1cc(C)cc(N2C(=O)CSC23C(=O)N(CC(=O)NCCc2ccccc2)c2ccccc23)c1 (configuration not stated) 3.33%
CN(C(=O)c1ccc2c(c1)N(Cc1cccc(Cl)c1)C(=O)c1ccccc1S2=O)C1CCCCC1 (configuration not stated) -5.32%
CCOC(=O)C1=C(CS(=O)(=O)c2ccc(C)cc2)NC(=O)NC1c1ccc(C(C)C)cc1 (configuration not stated) -14.1%
COc1ccc(NC(=O)CCS(=O)(=O)c2cccc3nonc23)cc1Cl -2.7%
Cc1oc2ncn(C)c(=O)c2c1C(=O)NC(C)c1ccccc1 (configuration not stated) 4.64%
O=C(CSC1=Nc2ccccc2N=C(c2ccc(F)cc2)C1)NCc1ccc(F)cc1 -4.36%
Cc1ccc(C)c(CN2C(=O)CSc3ccc(C(=O)NCc4ccc(F)cc4)cc32)c1 -1.16%
Cc1ccc(CSc2nc3cccnc3n2Cc2ccc(C(=O)NCCc3ccccc3)cc2)cc1 -9.24%
CCC(=O)N1c2nc(-c3ccco3)nn2C2(CCCCC2)[C@@H]2CCCC[C@@H]21 -4.96%
CCS(=O)(=O)N1CCc2cc(C(=O)Nc3cccc(Cl)c3C)ccc21 1.65%
O=C(c1cccc(Br)c1)N1CCN(Cc2cc(=O)n3nc(-c4ccccc4)sc3n2)CC1 -0.348%
COc1ccc(N2CCN(C(CNC(=O)C(=O)NCCCN(C)C)c3cccnc3)CC2)cc1 (configuration not stated) 0.351%
CCOc1c(Cl)cc(Cl)cc1CNCCSc1nnnn1C 0.739%
O=C(Nc1cc2c(cc1C(=O)c1ccccc1Cl)OCCO2)c1ccc(Br)cc1 -3.84%
Cc1nc2c(-c3ccccc3)c(C)nn2c(C)c1CCC(=O)NCc1ccccc1Cl -12.3%
Cc1ccc(-n2nnnc2CNC(=O)c2ccccc2S(C)(=O)=O)cc1C -9.13%
COc1ccc(-c2cn3nc(N4CCCC(C(=O)Nc5ccc(C)c(C)c5)C4)sc3n2)cc1 (configuration not stated) 4.06%
FC(F)(F)c1cc(-c2ccccc2)nc2cc(-c3ccc(Br)cc3)nn12 6.9%
O=C(CCC(=O)OCC(=O)c1ccc(Cl)cc1)Nc1ccc(Oc2ccccc2)cc1 3.41%

— PubChem BioAssay AID493208 (National Center for Advancing Translational Sciences (NCATS), 2011)
